Results from PMC12820563, “FoxP3 forms a head-to-head dimer in vivo and stabilizes its multimerization on adjacent microsatellites”.
The list shows a part of the results.

target: T1, MBP-FoxP1dN (Mus musculus, UniProt P58462 326-579); assay: PD-seq (MBP pull-down with sequencing); 20 mM Tris-HCl pH 7.5, 100 mM NaCl, 1.5 mM MgCl2, 0.4 uM protein, 0.1 uM dsDNA library, 30 min, room temperature, amylose pull-down; high values mean tight binding; details: protein: recombinant; tags: His6-MBP; chain copies: 2; dsDNA, one strand shown
T1 sequence: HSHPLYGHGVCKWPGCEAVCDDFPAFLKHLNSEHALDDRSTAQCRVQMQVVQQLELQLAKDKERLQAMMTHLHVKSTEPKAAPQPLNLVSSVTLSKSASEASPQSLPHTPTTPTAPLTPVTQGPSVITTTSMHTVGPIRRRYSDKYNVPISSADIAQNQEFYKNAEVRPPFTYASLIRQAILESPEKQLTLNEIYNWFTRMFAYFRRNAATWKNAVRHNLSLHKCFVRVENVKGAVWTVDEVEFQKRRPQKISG
In short: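 Binding is given as reads-per-million enrichment, pull-down over input, with replicates pooled. The bait was an N-terminus-lacking mouse FoxP3 or FoxP1 fragment with a His6-MBP tag, expressed in E. coli and used at 0.4 µM with 0.1 µM Klenow-filled degenerate double-stranded DNA library for 30 min at room temperature in Tris pH 7.5 buffer with NaCl and MgCl2. Amylose resin pull-down with three washes was followed by proteinase K release, PCR barcoding and Illumina sequencing.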

| Sequence | binding signal |
| --- | --- |
| GATGATTGTTCTCCCAGCTGATGAATTGATCCAATCGAGTAAACAAATTTTCCTAATCTTTCTGTTCAAGCGCCATCTAC | 1.04 RPM ratio (pull-down/input) |
| GATGATTGTTCTCCCAGCTGATGAATTGGGTCGGTCGAGTAAACAAATTTTCCTAATCTTTCTGTTCAAGCGCCATCTAC | 0.746 RPM ratio (pull-down/input) |
| GATGATTGTTCTCCCAGCTGATGAATTGTGGTGTTCGAGTAAACAAATTTTCCTAATCTTTCTGTTCAAGCGCCATCTAC | 1.31 RPM ratio (pull-down/input) |
| GATGATTGTTCTCCCAGCTGATGAATTCGGCTTATCGAGTAAACAAATTTTCCTAATCTTTCTGTTCAAGCGCCATCTAC | 0.921 RPM ratio (pull-down/input) |
| GATGATTGTTCTCCCAGCTGATGAATTTAGTGAATCGAGTAAACAAATTTTCCTAATCTTTCTGTTCAAGCGCCATCTAC | 0.958 RPM ratio (pull-down/input) |
| GATGATTGTTCTCCCAGCTGATGAATTTCAGGCATCGAGTAAACAAATTTTCCTAATCTTTCTGTTCAAGCGCCATCTAC | 0.927 RPM ratio (pull-down/input) |
| GATGATTGTTCTCCCAGCTGATGAATTTCGCCGTTCGAGTAAACAAATTTTCCTAATCTTTCTGTTCAAGCGCCATCTAC | 0.799 RPM ratio (pull-down/input) |
| GATGATTGTTCTCCCAGCTGATGAATTTCTGATATCGAGTAAACAAATTTTCCTAATCTTTCTGTTCAAGCGCCATCTAC | 1.05 RPM ratio (pull-down/input) |
| GATGATTGTTCTCCCAGCTGATGAATTAGCAACATCGAGTAAACAAATTTTCCTAATCTTTCTGTTCAAGCGCCATCTAC | 1.38 RPM ratio (pull-down/input) |
| GATGATTGTTCTCCCAGCTGATGAATTTGTATAATCGAGTAAACAAATTTTCCTAATCTTTCTGTTCAAGCGCCATCTAC | 1.56 RPM ratio (pull-down/input) |
| GATGATTGTTCTCCCAGCTGATGAATTTTTCAGCTCGAGTAAACAAATTTTCCTAATCTTTCTGTTCAAGCGCCATCTAC | 0.846 RPM ratio (pull-down/input) |
| GATGATTGTTCTCCCAGCTGATGAATTGGCTTATTCGAGTAAACAAATTTTCCTAATCTTTCTGTTCAAGCGCCATCTAC | 0.977 RPM ratio (pull-down/input) |
| GATGATTGTTCTCCCAGCTGATGAATTCGCGGCTTCGAGTAAACAAATTTTCCTAATCTTTCTGTTCAAGCGCCATCTAC | 0.811 RPM ratio (pull-down/input) |
| GATGATTGTTCTCCCAGCTGATGAATTCCCGCTCTCGAGTAAACAAATTTTCCTAATCTTTCTGTTCAAGCGCCATCTAC | 0.763 RPM ratio (pull-down/input) |
| GATGATTGTTCTCCCAGCTGATGAATTCCCGAGATCGAGTAAACAAATTTTCCTAATCTTTCTGTTCAAGCGCCATCTAC | 0.874 RPM ratio (pull-down/input) |
| GATGATTGTTCTCCCAGCTGATGAATTTTCGGACTCGAGTAAACAAATTTTCCTAATCTTTCTGTTCAAGCGCCATCTAC | 0.807 RPM ratio (pull-down/input) |
| GATGATTGTTCTCCCAGCTGATGAATTAAGCAACTCGAGTAAACAAATTTTCCTAATCTTTCTGTTCAAGCGCCATCTAC | 1.08 RPM ratio (pull-down/input) |
| GATGATTGTTCTCCCAGCTGATGAATTGTCCTAGTCGAGTAAACAAATTTTCCTAATCTTTCTGTTCAAGCGCCATCTAC | 0.994 RPM ratio (pull-down/input) |
| GATGATTGTTCTCCCAGCTGATGAATTCCATACTTCGAGTAAACAAATTTTCCTAATCTTTCTGTTCAAGCGCCATCTAC | 0.846 RPM ratio (pull-down/input) |
| GATGATTGTTCTCCCAGCTGATGAATTCCTAAAATCGAGTAAACAAATTTTCCTAATCTTTCTGTTCAAGCGCCATCTAC | 0.966 RPM ratio (pull-down/input) |

| Sequence | binding signal |
| --- | --- |
| GATGATTGTTCTCCCAGCTGATGAATTAGATACATCGAGTAAACAAATTTTCCTAATCTTTCTGTTCAAGCGCCATCTAC | 1.25 RPM ratio (pull-down/input) |
| GATGATTGTTCTCCCAGCTGATGAATTCGTTCCATCGAGTAAACAAATTTTCCTAATCTTTCTGTTCAAGCGCCATCTAC | 0.838 RPM ratio (pull-down/input) |
| GATGATTGTTCTCCCAGCTGATGAATTTGTCTTTTCGAGTAAACAAATTTTCCTAATCTTTCTGTTCAAGCGCCATCTAC | 1.27 RPM ratio (pull-down/input) |
| GATGATTGTTCTCCCAGCTGATGAATTCGACCTTTCGAGTAAACAAATTTTCCTAATCTTTCTGTTCAAGCGCCATCTAC | 0.853 RPM ratio (pull-down/input) |
| GATGATTGTTCTCCCAGCTGATGAATTATGCTAGTCGAGTAAACAAATTTTCCTAATCTTTCTGTTCAAGCGCCATCTAC | 1.05 RPM ratio (pull-down/input) |
| GATGATTGTTCTCCCAGCTGATGAATTAGAGTATTCGAGTAAACAAATTTTCCTAATCTTTCTGTTCAAGCGCCATCTAC | 1.09 RPM ratio (pull-down/input) |
| GATGATTGTTCTCCCAGCTGATGAATTGTTATTGTCGAGTAAACAAATTTTCCTAATCTTTCTGTTCAAGCGCCATCTAC | 3.45 RPM ratio (pull-down/input) |
| GATGATTGTTCTCCCAGCTGATGAATTGGTGTCCTCGAGTAAACAAATTTTCCTAATCTTTCTGTTCAAGCGCCATCTAC | 0.99 RPM ratio (pull-down/input) |
| GATGATTGTTCTCCCAGCTGATGAATTTAATGTCTCGAGTAAACAAATTTTCCTAATCTTTCTGTTCAAGCGCCATCTAC | 1.07 RPM ratio (pull-down/input) |
| GATGATTGTTCTCCCAGCTGATGAATTTCGCGATTCGAGTAAACAAATTTTCCTAATCTTTCTGTTCAAGCGCCATCTAC | 0.841 RPM ratio (pull-down/input) |
| GATGATTGTTCTCCCAGCTGATGAATTGTGGCTTTCGAGTAAACAAATTTTCCTAATCTTTCTGTTCAAGCGCCATCTAC | 1.19 RPM ratio (pull-down/input) |
| GATGATTGTTCTCCCAGCTGATGAATTCCAGAAGTCGAGTAAACAAATTTTCCTAATCTTTCTGTTCAAGCGCCATCTAC | 0.773 RPM ratio (pull-down/input) |
| GATGATTGTTCTCCCAGCTGATGAATTTGTTATCTCGAGTAAACAAATTTTCCTAATCTTTCTGTTCAAGCGCCATCTAC | 1.76 RPM ratio (pull-down/input) |
| GATGATTGTTCTCCCAGCTGATGAATTGTCGATATCGAGTAAACAAATTTTCCTAATCTTTCTGTTCAAGCGCCATCTAC | 1.1 RPM ratio (pull-down/input) |
| GATGATTGTTCTCCCAGCTGATGAATTGGGGCCGTCGAGTAAACAAATTTTCCTAATCTTTCTGTTCAAGCGCCATCTAC | 0.828 RPM ratio (pull-down/input) |
| GATGATTGTTCTCCCAGCTGATGAATTACGACGCTCGAGTAAACAAATTTTCCTAATCTTTCTGTTCAAGCGCCATCTAC | 0.993 RPM ratio (pull-down/input) |
| GATGATTGTTCTCCCAGCTGATGAATTGATTTCTTCGAGTAAACAAATTTTCCTAATCTTTCTGTTCAAGCGCCATCTAC | 1.1 RPM ratio (pull-down/input) |
| GATGATTGTTCTCCCAGCTGATGAATTAAACCAATCGAGTAAACAAATTTTCCTAATCTTTCTGTTCAAGCGCCATCTAC | 1.07 RPM ratio (pull-down/input) |
| GATGATTGTTCTCCCAGCTGATGAATTGCCCGCCTCGAGTAAACAAATTTTCCTAATCTTTCTGTTCAAGCGCCATCTAC | 0.962 RPM ratio (pull-down/input) |
| GATGATTGTTCTCCCAGCTGATGAATTGTATGCGTCGAGTAAACAAATTTTCCTAATCTTTCTGTTCAAGCGCCATCTAC | 1.29 RPM ratio (pull-down/input) |
